Test results reported in paper PMC12689914 (2025).

Target: Peptide-3
Assay: MST

- Kd: 81 nM
B1: Neuropilin-1 (protein)
chain: not shown
